Laboratory results taken from PMC12040169 (PLOS Biology, 2025).
This is one part of the list.

System: T1, C. trachomatis L2/434/Bu expressing GFP (CTL2-GFP)
T1 construct: L2/434/Bu GFP intracellular growth in HeLa cells
Design: species or system HeLa; C. trachomatis total inclusion area by high-content imaging, normalised to DMSO
Conditions: total inclusion area; 28.5 h, 10 µM; inhibitor
In short: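 Bulk GFP and resorufin signals were read first. Wells were then fixed, stained with Hoechst and imaged to detect GFP inclusions and host nuclei. MICs followed the previously described calculation.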

Structure (SMILES)	% of control remaining
Cc1cc(C)n(CCCN(C)Cc2ccc(N3CCCC3=O)cc2)n1 [CBK281827]	80.2379
CC(C)c1ccc(OCCc2cc(C3CCN(C(=O)CC4CCCC4)C3)n[nH]2)cc1 (stereo not drawn) [CBK286129]	72.408
CCCC(=O)NC[C@H]1CC[C@H](c2nnc(-c3ccsc3)o2)CC1 [CBK283362]	113.25
Cc1cc(C)nc(N/N=C/c2cn(-c3ccccc3)nc2-c2ccc([N+](=O)[O-])cc2)n1 [CBK262864]	85.4015
CCN(C(=O)c1n[nH]c2c1CCC2)C1CCN(C)CC1 [CBK281870]	105.536
Cc1nc2c(c(N(C)C)n1)CCN(C(=O)C(C)n1cc(Cl)cn1)C2 (stereo not drawn) [CBK307293]	58.8659
FC(F)(F)c1ccc(OCCN2CCNCC2)nc1 [CBK113462]	105.575
Clc1nc2ccccc2nc1OCCOc1ccccc1 [CBK113367]	105.568
COCCNc1nc(-c2ccoc2)cn2ccnc12 [CBK066416]	117.72
CC(=O)Nc1ccc(NC(=O)c2cc(-c3ccc(Cl)cc3Cl)nc3ccccc23)cc1 [CBK265080]	110.388
O=C(CSc1nc2ccccc2[nH]1)n1c2c(c3ccccc31)CCCC2 [CBK263945]	67.8375
CN1C(=O)/C(=C2\SC(=S)N(C(Cc3ccccc3)C(=O)O)C2=O)c2ccccc21 (stereo not drawn) [CBK263507]	104.461
Cn1cc(C(Nc2cccc(C#N)n2)[C@H]2C[C@H](O)C2)cn1 (stereo partly drawn) [CBK307011]	101.958
O=C(O)c1cccc(NS(=O)(=O)c2ccccc2)c1 [CBK155710]	108.427
CCCC/C=C/c1nccnc1NCc1cccs1 [CBK038090]	116.272
CCOC(=O)c1c(C)nc(-c2ccccc2)nc1NC(=O)C(C)C [CBK028118]	107.994
COc1cccc(N2CCN(CCCOc3ccc(F)cc3)CC2)n1 [CBK010355F]	64.6191
CN(C)Cc1ccccc1C(O)c1ccccc1 (stereo not drawn) [CBK261277]	107.925
O=C(O)Cn1c(=O)[nH]c2c(-c3ccccc3)c[nH]c2c1=O [CBK287218]	96.4798
O=C(Nc1cccnc1)c1ccc(F)cc1Cl [CBK288246]	75.2738
C=C(C)CN1CCN(CC(CC(=O)NCc2ccccc2)C(=O)O)CC1 (stereo not drawn) [CBK286823]	108.346
CCN(CC)C1CCN(C(=O)Nc2cc(NC(C)=O)ccc2F)C1 (stereo not drawn) [CBK305207]	57.6791
Cc1ccccc1NC(=O)CCC(=O)N/N=C/c1ccncc1 [CBK262016]	102.058
CC(C)c1noc(NCCc2cn3c(n2)CCCC3)n1 [CBK306444]	54.277
O=c1[nH]c(=O)c2cc(S(=O)(=O)N3CCCCC3CN3CCCCC3)ccc2[nH]1 (stereo not drawn) [CBK286393]	114.028
CCOC(=O)c1cn[nH]c1N [CBK175217]	44.0228

Structure (SMILES)	% of control remaining
CCOc1ccc(CN2CCN(C(=O)c3ccc(-c4ccccc4)cc3)CC2)cc1 [CBK263399]	88.0437
CC(CC(=O)N1CCC(Oc2ccccc2F)CC1)n1cccn1 (stereo not drawn) [CBK282118]	91.9986
FC(F)(F)c1nnc(-c2cc3sccc3s2)o1 [CBK006303]	81.0758
CCn1ncc(S(=O)(=O)N2CCCC(c3cccc(-c4cccc(OC)c4)n3)C2)c1C (stereo not drawn) [CBK286155]	100.713
Brc1cccc(/C=N/N2CCN(Cc3cccc4ccccc34)CC2)c1 [CBK263011]	84.3626
CCC(CC)C(=O)N1CCCC1c1nn(C)cc1-c1cc(C)no1 (stereo not drawn) [CBK283452]	117.037
CC(C)(C)c1ccc(S(=O)(=O)N2CCCC[C@H]2COC(=O)CCC(=O)O)cc1 [CBK200063]	97.0314
CN1CCN(c2nc3ccccn3c(=O)c2/C=C2\SC(=S)N(CCc3ccccc3)C2=O)CC1 [CBK263131]	85.038
O=S(=O)(Nc1ccc2[nH]ccc2c1)c1cc(C(F)(F)F)cc(C(F)(F)F)c1 [CBK156330]	87.3785
COC(=O)C1CCN(Cc2ccc(-c3nnn(CC(=O)NCc4ccc(C)cc4)n3)cc2)C1 (stereo not drawn) [CBK155406T]	99.0825
COc1ccc(CN2CCCN(c3cc(OC4CCCCC4)ncn3)CC2)cc1 [CBK083278T]	98.6055
Cc1ccc(S(=O)(=O)Nc2ccsc2C(=O)N2CCOCC2)cc1[N+](=O)[O-] [CBK004612]	86.7404
O=C(Nc1ccc(OC(F)(F)F)cc1)N1CCN(Cc2ccc3c(c2)OCO3)CC1 [CBK074754]	74.5748
CCC(C)c1ccc(NC(=S)NCc2ccccn2)cc1 (stereo not drawn) [CBK266966]	112.272
CCn1cc(CN(CCOC)C(=O)c2cc3c(Cl)cccc3[nH]2)cn1 [CBK306903]	43.8783
COCCN(Cc1cnn(C)c1)C(=O)c1ccc2oc(C)cc2c1 [CBK307059]	23.0974
Cc1ccc(C2=NN(C(=N)SC3CC(=O)N(c4ccc(C(=O)O)cc4)C3=O)C(c3ccc(Br)cc3)C2)cc1 (stereo not drawn) [CBK263497]	106.864
CC(=O)N1CCN(C[C@@H]2C=C(C)[C@H](Cc3nnc(C)o3)C[C@H]2C(C)C)CC1 [CBK289219]	77.6798
Cn1nnnc1SCc1nc(N)nc(Nc2ccccc2)n1 [CBK268092]	94.0029
O=C(c1ccccc1)c1cn[nH]c1-c1ccccc1O [CBK287970]	109.811
O=[N+]([O-])c1ccc(CCNCC(O)COc2cccc3c2CCCC3)cc1 (stereo not drawn) [CBK003083]	92.1799
Cc1nn(Cc2nnc(SCC(=O)C(C)(C)C)o2)c(C)c1Br [CBK005646]	66.3162
CCCCS(=O)(=O)N1CCN(CCc2ccccc2)CC1 [CBK270316]	80.8453
NC(=O)C1(N2CCCCC2)CCN(C(=S)Nc2ccc(S(N)(=O)=O)cc2)CC1 [CBK265900]	96.8748
O=C(CCNS(=O)(=O)c1ccccc1)OCc1ccc([N+](=O)[O-])cc1 [CBK296659]	74.208
